No constants are given. Whether binding was seen depends on the method and setting. Some entries that bind do so weakly or less than the wild type. For part of these data: Tags and fused reporters may be left off the sequences shown.
How the values were obtained:
Experiment in all cases: peptide or protein array; Invitrogen Protoarray v4.0, about 8,400 human proteins spotted on nitrocellulose-coated glass slides; 10 µg biotinylated tag-free NEMO in 120 µl probing buffer (PBS, 0.5 mM DTT, 5 mM MgCl2, 5% glycerol, 0.05% Triton X-100), 4°C, 1.5 h; bound NEMO detected with labelled streptavidin; hits Z-score > 3, hits of the biotin-GST control array subtracted; both purified
[1] = target: ADP-ribosylation-like factor 6 interacting protein 4 (NM_016638) (human) (UniProt Q66PJ3)
[2] = target: Nuclear receptor binding factor 2 (human) (UniProt Q96F24)
LUC7-like 2 (human) = target: T1, LUC7-like 2 (human) (UniProt Q9Y383)
T1 sequence: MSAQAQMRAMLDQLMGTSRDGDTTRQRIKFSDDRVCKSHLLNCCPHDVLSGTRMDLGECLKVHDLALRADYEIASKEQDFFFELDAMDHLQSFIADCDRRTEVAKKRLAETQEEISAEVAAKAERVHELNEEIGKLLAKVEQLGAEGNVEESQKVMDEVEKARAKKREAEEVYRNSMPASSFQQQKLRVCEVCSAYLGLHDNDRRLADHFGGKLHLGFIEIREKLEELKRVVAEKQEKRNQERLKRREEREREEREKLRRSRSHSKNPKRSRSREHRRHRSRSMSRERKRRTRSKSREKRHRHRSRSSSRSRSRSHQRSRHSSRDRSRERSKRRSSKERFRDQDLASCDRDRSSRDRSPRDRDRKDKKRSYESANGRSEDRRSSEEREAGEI

Chains of the proteins cited; added tags and fusions are not shown. Lines headed by an entry give the natural chain unless they say otherwise; changes in a name come on top. A line that says so, or that is headed by a name, gives the form on record, which may keep a tag or linker.
ADP-ribosylation-like factor 6 interacting protein 4 (NM_016638) (Q66PJ3, form named): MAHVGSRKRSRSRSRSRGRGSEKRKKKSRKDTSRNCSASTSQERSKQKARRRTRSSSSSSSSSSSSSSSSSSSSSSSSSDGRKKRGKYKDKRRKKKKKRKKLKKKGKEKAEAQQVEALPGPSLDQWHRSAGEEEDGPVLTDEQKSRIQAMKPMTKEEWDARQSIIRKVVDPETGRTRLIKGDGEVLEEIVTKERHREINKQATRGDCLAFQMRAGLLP
UniProt O60674: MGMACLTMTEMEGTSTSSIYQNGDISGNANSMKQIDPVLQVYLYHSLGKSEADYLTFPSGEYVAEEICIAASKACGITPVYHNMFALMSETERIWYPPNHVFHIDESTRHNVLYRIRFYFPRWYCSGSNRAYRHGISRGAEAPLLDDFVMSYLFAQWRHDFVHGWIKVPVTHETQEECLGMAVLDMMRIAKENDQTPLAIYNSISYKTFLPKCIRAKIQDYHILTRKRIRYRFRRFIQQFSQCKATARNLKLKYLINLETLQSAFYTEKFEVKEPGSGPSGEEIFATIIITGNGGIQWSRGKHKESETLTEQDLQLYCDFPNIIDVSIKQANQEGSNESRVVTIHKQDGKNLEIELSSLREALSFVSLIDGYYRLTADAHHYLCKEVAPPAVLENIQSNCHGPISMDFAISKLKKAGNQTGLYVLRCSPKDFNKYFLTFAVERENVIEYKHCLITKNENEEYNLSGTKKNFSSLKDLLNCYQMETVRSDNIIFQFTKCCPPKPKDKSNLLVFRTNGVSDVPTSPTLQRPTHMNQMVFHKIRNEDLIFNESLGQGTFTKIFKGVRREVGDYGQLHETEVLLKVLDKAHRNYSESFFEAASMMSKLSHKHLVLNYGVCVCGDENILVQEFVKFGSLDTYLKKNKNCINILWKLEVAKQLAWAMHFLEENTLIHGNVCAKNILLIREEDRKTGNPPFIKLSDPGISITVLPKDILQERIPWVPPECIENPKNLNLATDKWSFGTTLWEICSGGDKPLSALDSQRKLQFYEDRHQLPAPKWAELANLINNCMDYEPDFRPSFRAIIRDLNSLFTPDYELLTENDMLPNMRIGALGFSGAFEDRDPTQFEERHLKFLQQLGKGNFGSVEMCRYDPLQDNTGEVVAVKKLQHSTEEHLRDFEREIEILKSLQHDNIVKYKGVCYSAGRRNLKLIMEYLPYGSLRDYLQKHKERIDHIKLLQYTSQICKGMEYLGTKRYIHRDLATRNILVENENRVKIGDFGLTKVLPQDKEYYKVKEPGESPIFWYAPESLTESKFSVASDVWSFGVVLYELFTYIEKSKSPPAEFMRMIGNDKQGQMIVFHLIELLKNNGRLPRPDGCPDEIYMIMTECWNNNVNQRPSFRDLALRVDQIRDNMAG

Glycogenin 2 (human) = target: T2, Glycogenin 2 (human) (UniProt O15488)
T2 sequence: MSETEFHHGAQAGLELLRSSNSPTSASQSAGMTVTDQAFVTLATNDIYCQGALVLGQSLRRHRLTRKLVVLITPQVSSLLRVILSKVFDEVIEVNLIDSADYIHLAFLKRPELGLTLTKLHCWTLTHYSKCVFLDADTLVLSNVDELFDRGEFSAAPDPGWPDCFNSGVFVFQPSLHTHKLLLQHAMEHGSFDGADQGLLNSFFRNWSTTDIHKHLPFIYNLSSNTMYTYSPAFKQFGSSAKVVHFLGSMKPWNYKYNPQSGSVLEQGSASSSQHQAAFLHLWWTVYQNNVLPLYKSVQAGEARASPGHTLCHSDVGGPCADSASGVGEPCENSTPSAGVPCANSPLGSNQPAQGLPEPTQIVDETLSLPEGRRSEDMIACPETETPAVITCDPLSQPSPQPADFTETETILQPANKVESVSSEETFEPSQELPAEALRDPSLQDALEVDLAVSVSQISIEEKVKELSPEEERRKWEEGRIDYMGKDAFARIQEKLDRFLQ

PNMA-like 1 (human) = target: T3, PNMA-like 1 (human) (UniProt Q86V59)
T3 sequence: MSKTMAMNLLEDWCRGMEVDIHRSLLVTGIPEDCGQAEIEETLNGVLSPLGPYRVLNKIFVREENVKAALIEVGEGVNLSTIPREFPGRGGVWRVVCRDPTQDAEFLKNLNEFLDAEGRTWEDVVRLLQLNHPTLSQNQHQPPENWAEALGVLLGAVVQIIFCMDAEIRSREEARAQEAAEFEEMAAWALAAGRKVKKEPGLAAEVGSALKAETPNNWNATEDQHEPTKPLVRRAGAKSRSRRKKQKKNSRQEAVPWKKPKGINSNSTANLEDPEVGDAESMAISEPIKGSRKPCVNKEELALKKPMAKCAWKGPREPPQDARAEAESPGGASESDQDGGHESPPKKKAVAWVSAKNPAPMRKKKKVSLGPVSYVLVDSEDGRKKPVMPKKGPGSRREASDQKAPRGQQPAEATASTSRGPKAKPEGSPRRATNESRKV

Janus kinase 2 (human) = Janus kinase 2 (human) (UniProt O60674)

Measured: binding

NEMO (NF-κB essential modulator), tag-free, biotinylated (from UniProt Q9Y6K9 1-419)
binds: all assays above
